Results are given in words; binding and its absence hold for the method and conditions named. Binding seen in cells or lysates may run through a third protein. Some results given as binding are weak or reduced against the parent protein; the word gives no strength. Where a sequence is shown, tags or fusion partners need not be part of it.
What was measured:
Test in all cases: co-IP; GFP-PI3KAP/XB130 co-transfected with full-length or deletion mutants of FLAG-tagged PI3KAP/XB130 into HEK293T cells; lysates immunoprecipitated with anti-FLAG M2 agarose, immunoblotting
[1] = biological target: T1, FLAG-tagged PI3KAP/XB130 deletion mutant, amino acid residues 1-675 (mouse) (UniProt Q5DTU0)
T1 sequence: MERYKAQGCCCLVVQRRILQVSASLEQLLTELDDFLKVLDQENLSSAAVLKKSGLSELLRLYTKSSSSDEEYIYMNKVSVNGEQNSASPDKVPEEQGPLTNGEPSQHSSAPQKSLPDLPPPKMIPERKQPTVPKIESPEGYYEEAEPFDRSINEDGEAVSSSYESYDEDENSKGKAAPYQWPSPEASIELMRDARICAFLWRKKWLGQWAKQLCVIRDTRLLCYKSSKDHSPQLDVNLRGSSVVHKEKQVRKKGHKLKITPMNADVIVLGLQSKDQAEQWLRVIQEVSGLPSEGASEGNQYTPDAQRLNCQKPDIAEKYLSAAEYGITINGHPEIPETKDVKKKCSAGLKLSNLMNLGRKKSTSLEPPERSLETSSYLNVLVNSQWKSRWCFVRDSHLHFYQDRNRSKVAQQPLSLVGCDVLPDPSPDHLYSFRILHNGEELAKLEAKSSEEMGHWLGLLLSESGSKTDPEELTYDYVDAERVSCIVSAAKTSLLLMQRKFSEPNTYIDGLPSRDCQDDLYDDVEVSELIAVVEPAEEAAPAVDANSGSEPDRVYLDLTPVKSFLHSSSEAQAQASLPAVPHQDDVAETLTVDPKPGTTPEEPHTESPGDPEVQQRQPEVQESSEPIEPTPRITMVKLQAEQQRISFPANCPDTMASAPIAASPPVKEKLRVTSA

[2] = biological target: T2, FLAG-tagged PI3KAP/XB130 deletion mutant, amino acid residues 122-843 (mouse) (UniProt Q5DTU0)
T2 sequence: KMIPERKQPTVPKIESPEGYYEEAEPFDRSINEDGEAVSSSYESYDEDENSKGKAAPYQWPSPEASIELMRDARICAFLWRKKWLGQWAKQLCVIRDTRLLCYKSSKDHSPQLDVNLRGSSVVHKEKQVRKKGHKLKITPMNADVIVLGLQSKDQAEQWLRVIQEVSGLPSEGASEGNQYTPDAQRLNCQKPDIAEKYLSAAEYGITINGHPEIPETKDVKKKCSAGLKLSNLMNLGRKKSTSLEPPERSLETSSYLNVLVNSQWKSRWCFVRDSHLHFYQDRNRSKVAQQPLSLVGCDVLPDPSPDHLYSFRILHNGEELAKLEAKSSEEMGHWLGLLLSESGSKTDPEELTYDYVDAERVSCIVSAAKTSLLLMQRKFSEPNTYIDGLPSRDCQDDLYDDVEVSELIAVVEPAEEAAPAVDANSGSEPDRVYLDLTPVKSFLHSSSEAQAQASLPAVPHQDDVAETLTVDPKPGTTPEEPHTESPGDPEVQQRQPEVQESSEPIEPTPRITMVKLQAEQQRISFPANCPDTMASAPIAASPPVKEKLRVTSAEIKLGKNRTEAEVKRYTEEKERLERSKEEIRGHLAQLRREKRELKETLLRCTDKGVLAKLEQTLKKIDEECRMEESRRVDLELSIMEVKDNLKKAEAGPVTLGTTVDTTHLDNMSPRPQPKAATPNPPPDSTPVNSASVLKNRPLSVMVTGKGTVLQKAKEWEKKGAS

[3] = biological target: T3, FLAG-tagged PI3KAP/XB130 deletion mutant, amino acid residues 41-843 (mouse) (UniProt Q5DTU0)
T3 sequence: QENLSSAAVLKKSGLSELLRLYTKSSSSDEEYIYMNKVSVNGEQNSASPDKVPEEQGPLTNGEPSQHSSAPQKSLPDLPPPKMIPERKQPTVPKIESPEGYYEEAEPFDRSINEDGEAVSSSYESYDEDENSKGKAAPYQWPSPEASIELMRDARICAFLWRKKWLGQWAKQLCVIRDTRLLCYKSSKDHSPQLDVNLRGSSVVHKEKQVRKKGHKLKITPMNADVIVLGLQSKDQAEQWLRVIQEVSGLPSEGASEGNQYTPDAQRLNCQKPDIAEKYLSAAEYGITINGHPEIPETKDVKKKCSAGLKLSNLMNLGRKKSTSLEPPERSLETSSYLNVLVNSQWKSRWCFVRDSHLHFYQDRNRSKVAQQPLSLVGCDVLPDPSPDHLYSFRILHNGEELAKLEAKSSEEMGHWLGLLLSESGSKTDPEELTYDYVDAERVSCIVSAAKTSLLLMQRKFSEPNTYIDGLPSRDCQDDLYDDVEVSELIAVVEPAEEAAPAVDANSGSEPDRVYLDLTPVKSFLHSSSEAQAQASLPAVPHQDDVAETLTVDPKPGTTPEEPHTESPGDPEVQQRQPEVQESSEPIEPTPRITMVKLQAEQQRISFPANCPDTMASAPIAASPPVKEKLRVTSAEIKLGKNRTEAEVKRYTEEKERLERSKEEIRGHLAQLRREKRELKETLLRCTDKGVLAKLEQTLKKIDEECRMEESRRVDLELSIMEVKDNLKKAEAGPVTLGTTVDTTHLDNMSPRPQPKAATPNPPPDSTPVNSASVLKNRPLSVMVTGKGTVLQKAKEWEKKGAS

- binding [1]: binds
- binding [2]: no binding
- binding [3]: no binding
B1: GFP-fused PI3KAP/XB130 (protein, UniProt Q5DTU0-2 1-843)
chain: MERYKAQGCCCLVVQRRILQVSASLEQLLTELDDFLKVLDQENLSSAAVLKKSGLSELLRLYTKSSSSDEEYIYMNKVSVNGEQNSASPDKVPEEQGPLTNGEPSQHSSAPQKSLPDLPPPKMIPERKQPTVPKIESPEGYYEEAEPFDRSINEDGEAVSSSYESYDEDENSKGKAAPYQWPSPEASIELMRDARICAFLWRKKWLGQWAKQLCVIRDTRLLCYKSSKDHSPQLDVNLRGSSVVHKEKQVRKKGHKLKITPMNADVIVLGLQSKDQAEQWLRVIQEVSGLPSEGASEGNQYTPDAQRLNCQKPDIAEKYLSAAEYGITINGHPEIPETKDVKKKCSAGLKLSNLMNLGRKKSTSLEPPERSLETSSYLNVLVNSQWKSRWCFVRDSHLHFYQDRNRSKVAQQPLSLVGCDVLPDPSPDHLYSFRILHNGEELAKLEAKSSEEMGHWLGLLLSESGSKTDPEELTYDYVDAERVSCIVSAAKTSLLLMQRKFSEPNTYIDGLPSRDCQDDLYDDVEVSELIAVVEPAEEAAPAVDANSGSEPDRVYLDLTPVKSFLHSSSEAQAQASLPAVPHQDDVAETLTVDPKPGTTPEEPHTESPGDPEVQQRQPEVQESSEPIEPTPRITMVKLQAEQQRISFPANCPDTMASAPIAASPPVKEKLRVTSAEIKLGKNRTEAEVKRYTEEKERLERSKEEIRGHLAQLRREKRELKETLLRCTDKGVLAKLEQTLKKIDEECRMEESRRVDLELSIMEVKDNLKKAEAGPVTLGTTVDTTHLDNMSPRPQPKAATPNPPPDSTPVNSASVLKNRPLSVMVTGKGTVLQKAKEWEKKGAS
